Measurements published in patent US20250230211A1 (NANTCELL, published 2025).

T1: IL-2Rβ (UniProt P14784 27-240, limits assumed)
T1 construct: also called IL2RB
T1 sequence (looked up): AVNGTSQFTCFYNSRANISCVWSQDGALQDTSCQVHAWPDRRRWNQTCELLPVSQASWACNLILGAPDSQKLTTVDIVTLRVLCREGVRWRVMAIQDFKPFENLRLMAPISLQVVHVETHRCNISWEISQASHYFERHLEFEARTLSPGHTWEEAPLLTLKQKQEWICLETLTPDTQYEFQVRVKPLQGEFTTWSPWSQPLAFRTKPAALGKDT

T2: human CTLA4 (human, UniProt P16410 36-161)
T2 sequence (looked up): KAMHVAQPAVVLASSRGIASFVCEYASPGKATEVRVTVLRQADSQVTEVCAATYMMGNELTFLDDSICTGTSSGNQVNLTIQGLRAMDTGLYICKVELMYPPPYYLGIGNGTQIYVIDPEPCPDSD


Experiments:
Assay in all cases: SPR, fusion protein captured by anti-human IgG Fc, analyte by OneStep injection at 40 nM and 20 nM
IL-2Rβ = biological target: T1, IL-2Rβ
Description: (§1) Surface plasmon resonance (SPR) studies were conducted with the purified fusion proteins to assess their binding affinities to relevant targets. The SPR kinetic assay was performed by immobilizing rabbit α-human IgG Fc antibodies (Thermo) on a PCH sensor (Sartorius) as the capture molecule. All molecules of interest were then captured on the sensor surface by α-IgG1-Fc and Fc domain interaction. Binding kinetics against IL-2Rβ, human CTLA4, and murine CTLA4 were determined by OneStep injection at 40 nM and 20 nM of each analyte. […] The αCTLA4-scFv has higher affinity to CTLA4 than when the binding domain is in IgG form.

murine CTLA4 = biological target: T3, murine CTLA4 (murine, UniProt P09793 36-161, limits assumed)
T3 construct: also called Mouse CTLA4
Description: as §1

human CTLA4 = biological target: T2, human CTLA4
Description: as §1

Kd (IL-2Rβ) [nM]	Kd (murine CTLA4) [nM]	Kd (human CTLA4) [nM]	Binder
1.8 to 2			nogapendekin alfa-imbakicept (N-803) (Fc fusion, also called NAI; ALT-803) chain 1: [sequence of about 120 residues omitted] chain 2: ITCPPPMSVEHADIWVKSYSLYSRERYICNSGFKRKAGTSSLTECVLNKATNVAHWTTPSLKCIR[sequence of human IgG1 Fc with changes omitted]
3.1	0.1 to 0.2	0.1 to 0.9	αCTLA4/TxM-B (N-844-2) (Fc fusion) chain 1: DIQMTQSPSSLSASVGDRVTITCQASQDISNYLNWYQQKPGKAPKLLIYDASNLETGVPSRFSGSGSGTDFTFTISSLQPEDIATYYCQQGDAWPWTFGQGTKVEIKGGGGSGGGGSGGGGSEVQLVESGGGLVQPGGSLRLSCAASGFTFTSYSMHWVRQAPGKGLEWVSGISGSGRSTSYADSVKGRFTISRDNSKNTLYLQMNSLRAEDTAVYYCARDLMAFNLVRAGGFDVWGQGTLVTVSSGGGGSGGGGSGGGGS[sequence of about 120 residues omitted] chain 2: ITCPPPMSVEHADIWVKSYSLYSRERYICNSGFKRKAGTSSLTECVLNKATNVAHWTTPSLKCIR[sequence of human IgG1 Fc with changes omitted]
1.3	0.3 to 1.1	1.7 to 3.9	αCTLA4/TxM-C (N-844-3) (Fc fusion) chain 1: ITCPPPMSVEHADIWVKSYSLYSRERYICNSGFKRKAGTSSLTECVLNKATNVAHWTTPSLKCIR[sequence of human IgG1 Fc with changes omitted]GGGGSGGGGSGGGGSDIQMTQSPSSLSASVGDRVTITCQASQDISNYLNWYQQKPGKAPKLLIYDASNLETGVPSRFSGSGSGTDFTFTISSLQPEDIATYYCQQGDAWPWTFGQGTKVEIKGGGGSGGGGSGGGGSEVQLVESGGGLVQPGGSLRLSCAASGFTFTSYSMHWVRQAPGKGLEWVSGISGSGRSTSYADSVKGRFTISRDNSKNTLYLQMNSLRAEDTAVYYCARDLMAFNLVRAGGFDVWGQGTLVTVSS chain 2: [sequence of about 120 residues omitted]
1.5	0.1	0.3 to 0.6	αCTLA4/TxM-A (N-844-1) (Fc fusion) chain 1: DIQMTQSPSSLSASVGDRVTITCQASQDISNYLNWYQQKPGKAPKLLIYDASNLETGVPSRFSGSGSGTDFTFTISSLQPEDIATYYCQQGDAWPWTFGQGTKVEIKGGGGSGGGGSGGGGSEVQLVESGGGLVQPGGSLRLSCAASGFTFTSYSMHWVRQAPGKGLEWVSGISGSGRSTSYADSVKGRFTISRDNSKNTLYLQMNSLRAEDTAVYYCARDLMAFNLVRAGGFDVWGQGTLVTVSSITCPPPMSVEHADIWVKSYSLYSRERYICNSGFKRKAGTSSLTECVLNKATNVAHWTTPSLKCIR[sequence of human IgG1 Fc with changes omitted] chain 2: [sequence of about 120 residues omitted]
